Results taken from PubChem BioAssay AID445 (National Center for Advancing Translational Sciences (NCATS), 2006).
Out of some 110,000 compounds screened, about 40 (0.04%) were called active. Inconclusive results, whose numbers are uncertain, are shown with a selection of clear calls. Calls follow the shape of the dose curve; as a rule, active = well fitted curve in the direction sought with a large enough effect in the signal ratio (not every such curve was filed as active); inconclusive = small, poorly fitted or top-dose-only effect, or a change in a side signal; inactive = flat fitted curve, though single readings scatter; the % refers to the signal ratio. Where the call is inconclusive, the potency comes from a doubtful curve fit.

Assay: IkB Signaling;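 as to IkBa stabilization activation: 0% = basal untreated cells and 100% = reference inhibitor full response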
Conditions: ABC-DLBCL IkBa-CBG/CBR dual luciferase ratio (green luciferase fused to IkBa over red control in OCI-Ly3 lymphoma cells), 4 h; IkBa stabilization activation: at 57.1 µM (top of the series), scaled: untreated 0%, proteasome inhibitor 100% unless noted
In short: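 Curves were fitted separately to fusion (green), unfused (red) and ratio luminescence, then classed by r2, magnitude and activity. Cells: OCI-Ly3, 4 h compound plus doxycycline at 37C; 10 uM MG-132 defined full response.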
Potency is read from the fitted curve at half-maximal effect.

**Q.** Which “IkBa stabilization activation” value does the source give for `CC/C=C\C/C=C\C/C=C\CCCCCCCC(=O)O` here?
**A.** Its value is inactive: 7.9%.

**Q.** Which IkBa stabilization activation does the source give for `Cc1cc(Nc2ccccc2C)n2nc(Cc3ccc(Cl)cc3)nc2n1` here?
**A.** Its IkBa stabilization activation is inconclusive: 0.116% [signal inhibitor].

**Q.** Which IkBa stabilization activation does the source give for `Cc1ccn2c(Nc3ccc4c(c3)OCCO4)c(-c3ccc(C)o3)nc2c1` here?
**A.** Its IkBa stabilization activation is inconclusive: -1.49% [signal inhibitor].

**Q.** For `COc1ccc(NC(=O)c2cc3c(s2)-c2c(C)cccc2OC3)cc1Cl`, which “IkBa stabilization activation” value is on record?
**A.** Its value is inactive: -1.33%.

**Q.** For `COc1ccccc1-n1c(SC)nc(O)cc1=O`, which “IkBa stabilization activation” value is on record?
**A.** The value was inactive: 1.14%.

**Q.** For `Cc1ccc2sc(-c3ccc(N)cc3)nc2c1`, which “IkBa stabilization activation” value is on record?
**A.** Its value is inactive: 21.5%.

**Q.** For `O=C(Nc1ccc2nc(SCC(=O)N3CCc4ccccc43)sc2c1)c1ccccc1`, which IkBa stabilization activation is on record?
**A.** The IkBa stabilization activation was inconclusive: -1.59% [signal inhibitor].

**Q.** Which IkBa stabilization activation does the source give for `CCCCNC(=O)CSc1nc2nc(C)c(Cc3c(F)cccc3Cl)c(C)n2n1` here?
**A.** Its IkBa stabilization activation is inconclusive: -1.96% [signal inhibitor].

**Q.** For `CC(=O)c1ccc(NC(=O)COc2ccccc2-c2nc(-c3ccc(C)cc3)no2)cc1`, which Potency is on record?
**A.** Its Potency is inconclusive: 31.6 µM [signal inhibitor].

**Q.** Which IkBa stabilization activation does the source give for `Cc1ccc(OCC(=O)Nc2ccccc2C(=O)OCc2cc(=O)n3ccsc3n2)cc1` here?
**A.** Its IkBa stabilization activation is inconclusive: 1.28% [signal inhibitor].

**Q.** For `O=C(C1CCC(Cn2c(=O)c3sccc3n(Cc3ccccc3)c2=O)CC1)N1CCOCC1` (stereo not given), which “IkBa stabilization activation” value is on record?
**A.** Its value is inactive: -1.22%.

**Q.** With `CCCCCn1c(-c2ccco2)nc2nc3ccccc3nc21` as the compound, how does the IkBa stabilization activation read?
**A.** The IkBa stabilization activation was inconclusive: -0.929% [signal inhibitor].

**Q.** With `Cc1ccc(Cl)cc1N1CCN(C(=O)c2cnn(C)c2C2CCN(C(=O)OC(C)(C)C)CC2)CC1` as the compound, how does the IkBa stabilization activation read?
**A.** Its IkBa stabilization activation is inconclusive: -2.46% [signal inhibitor].

**Q.** Which “IkBa stabilization activation” value does the source give for `O=C(Nc1cc2c(cc1C(=O)c1ccccc1Br)OCCO2)c1ccccc1` here?
**A.** Its value is inactive: 3.19%.

**Q.** Which IkBa stabilization activation does the source give for `COc1cc(OC)c(NC(=O)N2CCc3c([nH]c4ccccc34)C2c2ccccc2F)cc1Cl` (stereo not given) here?
**A.** Its IkBa stabilization activation is inconclusive: -2.76% [signal inhibitor].

**Q.** Which IkBa stabilization activation does the source give for `Cc1cc(Cl)c2c(c1)[C@]1(C(=O)N2)[C@@H]2C(=O)N(Cc3ccccc3)C(=O)[C@@H]2[C@@H]2CCCN21` here?
**A.** The IkBa stabilization activation was inconclusive: 1.35% [signal inhibitor].

**Q.** Which IkBa stabilization activation does the source give for `O=C(Nc1ccccc1F)c1ccc(Cn2nc(N3CCN(c4ccccc4)CC3)ccc2=O)o1` here?
**A.** Its IkBa stabilization activation is inconclusive: 10.9% [signal inhibitor].

**Q.** For `O=C(CCC(=O)N1CC2CCCN2c2ccccc21)NCc1ccc(F)cc1` (stereo not given), which IkBa stabilization activation is on record?
**A.** Its IkBa stabilization activation is inconclusive: 0.683% [signal inhibitor].

**Q.** With `Cc1cc(C)c(NC(=O)CN2C(=O)c3cccnc3Sc3ccccc32)c(C)c1` as the compound, how does the IkBa stabilization activation read?
**A.** Its IkBa stabilization activation is inconclusive: 4.29% [signal inhibitor].

**Q.** With `COc1ccc(S(=O)(=O)c2c(Nc3ccccc3F)sc(C(=O)c3cccc(OC)c3)c2N)cc1` as the compound, how does the “IkBa stabilization activation” value read?
**A.** The value was inactive: 1.24%.
